According to publication PMC5201011 (2016):
Where a chain is given by its changes, count along the chain named. No constants are given. Whether binding was seen depends on the method and setting. Binding seen in cells or lysates may run through a third protein. Some results given as binding are weak or reduced against the parent protein; the word gives no strength. Sequences can lack the tags named with a protein. Blank lines part the entries; values can stand above or below the binder they belong to.

Assays:
FLAG–Rab40b = target: T1, FLAG–Rab40b (UniProt Q12829); test: co-IP; lysates of MDA-MB-231 cells stably expressing FLAG–Rab40b, incubated in the absence or presence of GTPγS; anti-FLAG immunoprecipitation, anti-Tks5 immunoblot; non-specific mouse IgG as control
T1 sequence: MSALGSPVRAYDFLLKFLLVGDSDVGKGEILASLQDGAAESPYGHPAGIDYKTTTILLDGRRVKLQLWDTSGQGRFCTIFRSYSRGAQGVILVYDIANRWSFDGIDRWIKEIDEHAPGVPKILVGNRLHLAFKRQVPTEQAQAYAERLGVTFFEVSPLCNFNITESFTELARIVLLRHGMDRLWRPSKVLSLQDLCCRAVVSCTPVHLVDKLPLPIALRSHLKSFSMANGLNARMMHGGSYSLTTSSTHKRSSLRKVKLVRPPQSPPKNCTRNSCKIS

GST–Tks5-PX [1] = target: T2, GST–Tks5-PX (UniProt Q5TCZ1); test: pull-down; GST–Tks5-PX-coated glutathione beads incubated with MDA-MB-231 lysates in the presence or absence of GTPγS; anti-FLAG blot; only the target purified
T2 sequence: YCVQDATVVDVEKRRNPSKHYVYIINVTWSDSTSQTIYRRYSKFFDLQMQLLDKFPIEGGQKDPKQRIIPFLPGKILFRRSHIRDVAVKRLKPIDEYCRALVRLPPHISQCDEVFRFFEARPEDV

GST–Tks5-PX [2] = target: T2, GST–Tks5-PX; test: pull-down; 10 µg GST–Tks5 fragment with 1% Triton X-100 lysate of MDA-MB-231 cells stably expressing FLAG–Rab40b; glutathione–Sepharose beads; washed in 20 mM Hepes pH 7.4, 150 mM NaCl, 1 mM MgCl2, 0.1% Triton X-100; anti-FLAG blot; only the target purified
GST–Tks5 SH3-1 domain = target: T3, GST–Tks5 SH3-1 domain (UniProt Q5TCZ1); test: as above
T3 sequence: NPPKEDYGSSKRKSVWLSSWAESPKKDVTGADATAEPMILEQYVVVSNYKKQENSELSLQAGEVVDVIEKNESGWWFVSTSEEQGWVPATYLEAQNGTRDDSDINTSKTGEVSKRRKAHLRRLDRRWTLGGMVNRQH

GST–Tks5-PX I27A = target: T4, GST–Tks5-PX I27A (UniProt Q5TCZ1); test: as above
T4 sequence: T2 sequence with I24A

GST–Tks5 SH3-4 domain = target: T5, GST–Tks5 SH3-4 domain (UniProt Q5TCZ1); test: as above
T5 sequence: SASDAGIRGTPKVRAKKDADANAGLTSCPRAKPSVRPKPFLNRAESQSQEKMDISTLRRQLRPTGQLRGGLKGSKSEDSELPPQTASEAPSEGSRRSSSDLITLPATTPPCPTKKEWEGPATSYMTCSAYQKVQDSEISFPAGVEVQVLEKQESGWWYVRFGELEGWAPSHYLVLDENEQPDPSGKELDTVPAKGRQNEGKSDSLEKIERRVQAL

binding (FLAG–Rab40b): binds
B1: Tks5 (tyrosine kinase substrate 5) (protein, UniProt Q5TCZ1 1-1133)
chain: MLAYCVQDATVVDVEKRRNPSKHYVYIINVTWSDSTSQTIYRRYSKFFDLQMQLLDKFPIEGGQKDPKQRIIPFLPGKILFRRSHIRDVAVKRLKPIDEYCRALVRLPPHISQCDEVFRFFEARPEDVNPPKEDYGSSKRKSVWLSSWAESPKKDVTGADATAEPMILEQYVVVSNYKKQENSELSLQAGEVVDVIEKNESGWWFVSTSEEQGWVPATYLEAQNGTRDDSDINTSKTGEVSKRRKAHLRRLDRRWTLGGMVNRQHSREEKYVTVQPYTSQSKDEIGFEKGVTVEVIRKNLEGWWYIRYLGKEGWAPASYLKKAKDDLPTRKKNLAGPVEIIGNIMEISNLLNKKASGDKETPPAEGEGHEAPIAKKEISLPILCNASNGSAVGVPDRTVSRLAQGSPAVARIAPQRAQISSPNLRTRPPPRRESSLGFQLPKPPEPPSVEVEYYTIAEFQSCISDGISFRGGQKAEVIDKNSGGWWYVQIGEKEGWAPASYIDKRKKPNLSRRTSTLTRPKVPPPAPPSKPKEAEEGPTGASESQDSPRKLKYEEPEYDIPAFGFDSEPELSEEPVEDRASGERRPAQPHRPSPASSLQRARFKVGESSEDVALEEETIYENEGFRPYAEDTLSARGSSGDSDSPGSSSLSLTRKNSPKSGSPKSSSLLKLKAEKNAQAEMGKNHSSASFSSSITINTTCCSSSSSSSSSLSKTSGDLKPRSASDAGIRGTPKVRAKKDADANAGLTSCPRAKPSVRPKPFLNRAESQSQEKMDISTLRRQLRPTGQLRGGLKGSKSEDSELPPQTASEAPSEGSRRSSSDLITLPATTPPCPTKKEWEGPATSYMTCSAYQKVQDSEISFPAGVEVQVLEKQESGWWYVRFGELEGWAPSHYLVLDENEQPDPSGKELDTVPAKGRQNEGKSDSLEKIERRVQALNTVNQSKKATPPIPSKPPGGFGKTSGTPAVKMRNGVRQVAVRPQSVFVSPPPKDNNLSCALRRNESLTATDGLRGVRRNSSFSTARSAAAEAKGRLAERAASQGSDSPLLPAQRNSIPVSPVRPKPIEKSQFIHNNLKDVYVSIADYEGDEETAGFQEGVSMEVLERNPNGWWYCQILDGVKPFKGWVPSNYLEKKN

binding (GST–Tks5-PX [1]): binds
binding (GST–Tks5-PX [2]): binds
binding (GST–Tks5-PX I27A): binds
B2: FLAG–Rab40b (protein, UniProt Q12829 1-278)
chain: T1 sequence
binding (GST–Tks5 SH3-1 domain): no binding (tested: 10 µg GST–Tks5 fragment)
binding (GST–Tks5 SH3-4 domain): no binding (tested: 10 µg GST–Tks5 fragment)
